Data: PubChem BioAssay AID1240 (Sanford-Burnham Center for Chemical Genomics, 2008)
The campaign covered roughly 50,000 compounds. About 800 (1.6%) showed an effect of 50% or more. This is one part of the list.

Molecular target: Bcl-2-like protein 10 (Homo sapiens) (UniProt Q9HD36)
Assay: TR3 peptide-Bcl-B binding displacers, biochemical primary FP assay, phenotype converters (AID 1240);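 also: 0% = Bcl-B with tracer peptide and DMSO and 100% = tracer peptide lacking Bcl-B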
Conditions: GST-Bcl-B / FITC-TR3 peptide fluorescence polarization; stronger effect = higher value; compound at 3.75 mg/L

UniProt Q9HD36, sequence (Q9HD36 whole entry, looked up): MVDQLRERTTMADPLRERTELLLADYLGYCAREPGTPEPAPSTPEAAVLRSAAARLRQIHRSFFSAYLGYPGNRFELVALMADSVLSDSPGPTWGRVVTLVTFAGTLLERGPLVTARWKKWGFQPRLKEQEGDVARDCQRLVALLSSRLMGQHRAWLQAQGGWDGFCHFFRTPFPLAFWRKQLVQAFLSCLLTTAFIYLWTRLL

Structure (SMILES) | displacement [%]
COc1ccc(CCNC(=O)C(=O)Nc2cc(Cl)ccc2C)cc1 | -12.3
CSc1nc(-c2ccccc2F)c(C#N)c(=O)n1C | -3
Cc1cc(Cl)ccc1OCC(=O)Nc1ccccc1C(N)=O | 1.8
Cc1ccc2ncnc(Nc3ccccc3Cl)c2c1 | 7.3
COc1ccccc1N1CCN(C(=S)Nc2ccccc2)CC1 | -3.4
O=C1S/C(=C/c2cc([N+](=O)[O-])ccc2O)C(=O)N1c1ccccc1 | 7
N#C/C(=C\c1ccc(-c2cccc(Cl)c2)o1)c1ccc(Cl)cc1 | -3.8
Cc1ccc2nc(N/N=C/c3ccc4ncccc4c3)nc(-c3ccccc3)c2c1 | -10.4
CN(C)c1ccc(C2Nc3ccc(C(=O)c4ccccc4)cc3NC3=C2C(=O)CCC3)cc1 (stereo not drawn) | -4.5
O=C(Nc1nc(-c2cccs2)cs1)c1ccc(S(=O)(=O)N2CCCCC2)cc1 | -20.1
O=c1c2c3c(sc2[nH]c(=S)n1-c1ccccc1)CCCC3 | -4
C=CCN1C(=O)/C(=C/c2ccc(O)c(OC)c2)S/C1=N\S(=O)(=O)c1ccc([N+](=O)[O-])cc1 | 0.9
CSc1ccc(Cl)c(C(=O)NCc2ccco2)c1 | -51.8
CCn1c(SCC(=O)c2ccc(Cl)cc2)nc2ccccc2c1=O | -5
COc1ccc(OCC(=O)NNC(=O)C2COc3ccccc3O2)cc1 (stereo not drawn) | 1.5
N#CC(C#N)=Cc1ccc(-c2ccc3c(c2)COC3=O)o1 | 109
COC(=O)C1=C(C)NC2=C(C(=O)CC(c3ccc(OC)c(OC)c3)C2)C1c1ccc(OC)c(OC)c1 (stereo not drawn) | 8.6
COc1ccc(C(=O)Nc2c(C)ccc3nsnc23)cc1 | 11.2
NNC(=O)c1cc(=O)[nH]c2ccccc12 | -8
COc1ccc(/C(O)=C2/C(=O)C(=O)N(CCCCCC(=O)O)C2c2ccc(OC)c(OC)c2)cc1 (stereo not drawn) | 2.7
CCN(CC)c1nc2n(c(=O)n1)CCO2 | -1.2
Cc1ccc(Cl)cc1NC(=O)C1CC(=O)N(c2ccc(Br)cc2)C1 (stereo not drawn) | -1.5

Structure (SMILES) | displacement [%]
NS(=O)(=O)c1ccc(NC(=O)C23CC4CC(CC(C4)C2)C3)cc1 | 1.4
Cc1nn(-c2ccccc2)c(C)c1/C=N/NC(=O)c1cc(C23CC4CC(CC(C4)C2)C3)[nH]n1 | -3.3
C=CCN1C(=O)/C(=C/c2c(NC)nc3ccccn3c2=O)SC1=S | 5.8
COc1ccccc1NC(=O)CC1S/C(=N\N=C\c2ccc(C)o2)NC1=O (stereo not drawn) | -8.7
O=C(O)C1C2CCC(C2)C1C(=O)Nc1nc(-c2ccc(Cl)cc2Cl)cs1 (stereo not drawn) | -8.5
CC1CCC(C(C)C)C(OC(=O)c2ccc([N+](=O)[O-])cc2)C1 (stereo not drawn) | 1.8
Cc1ccc(N(CC(=O)Nc2ccc(Oc3ccccc3)cc2)S(C)(=O)=O)cc1 | 3.6
CN1CCN(Cc2c(O)ccc3cc(-c4nc5ccccc5[nH]4)c(=O)oc23)CC1 | 125
O=C(NCCOc1ccccc1F)c1cccs1 | -12.9
Cc1cccc(N2C(=O)S/C(=C/c3ccc(N(C)C)cc3)C2=O)c1 | 95.7
COC(=O)c1cc(NC(=O)COc2ccccc2C)cc(C(=O)OC)c1 | -2.3
CC(=O)/C=C/c1ccc(-c2cc(Cl)ccc2Cl)o1 | -19.8
COC(=O)C1C(O)=C(C=Nc2ccccc2C)C(=O)CC1(C)C (stereo not drawn) | 3.7
COc1ccc(-c2ccc(/C=C/c3cc(C(F)(F)F)[nH]c(=O)n3)o2)cc1Cl | 7.9
O=C1c2ccccc2C(=O)C1(c1ccccc1)[N+](=O)[O-] | 16.4
Cc1cc(=O)[nH]c(N/N=C/c2cccnc2)n1 | -12
CC(C)N(Cc1c(O)ccc2c(=O)c(-c3ccccc3)coc12)C(C)C | -12.7
Cc1ccc2nc(-c3ccc([N+](=O)[O-])cc3)cn2c1 | 15.4
Cc1cccc(C)c1NC(=O)CSCc1c(Cl)cccc1Cl | -4.9
CSCCC(NC(=O)/C(=C\c1ccco1)NC(=O)c1ccco1)C(=O)O (stereo not drawn) | -0.3
CCOc1ccccc1NC(=O)CN(c1ccc(C)cc1)S(=O)(=O)c1ccc(SC)cc1 | 3.9
Cc1ccccc1OCCCCCn1ccnc1 | -6.6

Structure (SMILES) | displacement [%]
O=C(CCc1n[nH]c(=O)[nH]c1=O)N/N=C/c1ccc(C(F)(F)F)cc1 | 0.8
CCOC(=O)c1c(NC(=O)c2ccc(Cl)cc2Cl)sc(C(=O)Nc2ccccc2C)c1C | 1.3
CCCOC(=O)c1c(-c2ccc(OCC)cc2)csc1N | -4.5
COC(=O)c1ccccc1NC(=O)CN(c1ccc(OC)cc1OC)S(C)(=O)=O | -7
COc1cc(C2NC(=O)NC(C)=C2C(=O)OCc2ccc3c(c2)OCO3)cc(OC)c1OC (stereo not drawn) | 6.6
CC(NC(=O)CN1CCN(C)CC1)C1CC2CCC1C2 (stereo not drawn) | -7.4
O=C(NN1C(=O)CSC1c1ccc(Br)cc1)c1ccccc1 (stereo not drawn) | 11.1
Cc1[nH]n(-c2ccc([N+](=O)[O-])cc2)c(=O)c1C=NCCc1c[nH]c2ccccc12 | -5.7
O=C(CSc1nnnn1-c1ccccc1)Nc1ccccc1[N+](=O)[O-] | 1.7
CCOc1ccc(C(=O)Nc2cccc(OC)c2)cc1OCC | 13.6
N#CCNC1CC(=O)N(c2ccc(Br)cc2)C1=O (stereo not drawn) | -10.9
CCOC(=O)c1c(NC(=O)CCC(=O)OC)sc(C)c1C | 11.7
Cc1cc(C)c(S(=O)(=O)Nc2cc(Cl)c3oc4c(c3c2)C(=O)CCC4)c(C)c1 | 3.6
Cc1ccc(S(=O)(=O)NNC(=O)c2ccncc2)cc1[N+](=O)[O-] | -17.1
CCc1c(C)sc(NC(=O)C2CCCCC2C(=O)O)c1C#N (stereo not drawn) | -14.9
COC(=O)c1ccccc1NC(=O)c1cncc(Br)c1 | 15.2
Cc1ccc(SCC(=O)Nc2ccccc2)cc1 | 16.1
COc1ccccc1-n1c(CCN2C(=O)c3ccccc3C2=O)nc2ccccc2c1=O | -0.4
CC(=O)NC1C(OCCOc2ccc(Cl)cc2Cl)OC(COC(C)=O)C(OC(C)=O)C1OC(C)=O (stereo not drawn) | 9.1
COc1cccc(-c2csc(-c3cc4cccc(OC)c4oc3=O)n2)c1 | -23.1
CCOc1ccccc1NC(=O)C(=O)N/N=C/c1ccc(C)o1 | -13
CCOc1ccc2nc(SCC(C)=O)sc2c1 | -6.8

Structure (SMILES) | displacement [%]
COc1ccc(N(CC(=O)NCCc2ccc(OC)c(OC)c2)S(=O)(=O)c2ccccc2)cc1 | -9.6
CCOC(=O)C(NC(=O)CCC(=O)Nc1ccc(S(N)(=O)=O)cc1)C(O)c1ccccc1 (stereo not drawn) | 7.9
CCOC(=O)c1c(OS(=O)(=O)c2ccc(C)cc2)c(C=O)n(C)c1C | -9.8
CCN(CC)c1ccc(C=NN2CCN(Cc3ccccc3)CC2)cc1 | -10.8
CC1=NNC(=O)C1CCC(=O)N/N=C/c1c(Cl)cccc1Cl (stereo not drawn) | -12.7
Cc1ccc(S(=O)(=O)Oc2cccc(/C=C3/SC(=S)N(C)C3=O)c2)cc1 | -0.6
O=C(O)CCCCCN1C(=O)C(=O)/C(=C(/O)c2ccc(Cl)cc2)C1c1ccc(O)cc1 (stereo not drawn) | -3.9
O=C(Nc1cccc(NC(=O)c2cccc(Cl)c2)c1)c1ccc([N+](=O)[O-])cc1 | 2.8
CC(C)(C)NCCOc1ccc(Br)cc1 | -5.7
Cc1cc(C(=O)n2cnc3c(N)ncnc32)co1 | 12.2
CCOC(=O)c1cnc2c(C)c(-c3ccccc3)[nH]n2c1=O | 20.2
COc1cccc(-c2nnc(-c3ccc(OC)c(OC)c3)o2)c1 | 29.4
O=C(Nc1ccc(I)cc1)C(Cc1ccccc1)N1C(=O)c2ccccc2C1=O (stereo not drawn) | 5.4
COC(=O)c1nn2c(C(F)(F)F)cc(-c3ccccc3)nc2c1Br | -4.8
Cc1ccc(OCc2nnc(NC(=O)Nc3cccc(Cl)c3)s2)c(C)c1 | 4.5
CN(C)c1ccc(/C=C/C(=O)c2ccc3c(c2)OCCO3)cc1 | -18.8
CC(=O)Oc1ccc(N2C(=O)C3C4C=CC(C4=C(C)C)C3C2=O)cc1 (stereo not drawn) | -3.2
COC(=O)C1=C(C)N(Cc2ccco2)C(=O)/C1=C\c1ccc(OC)c([N+](=O)[O-])c1 | -14
Cc1cccc(OCC(=O)NCc2ccccn2)c1 | -2.7
CCc1cc(/C(O)=C/c2nc3ccccc3n2C)c(O)cc1OC(=O)C(C)(C)C | 12.7
O=C(Nc1ccccc1C(=O)Nc1ccccn1)c1ccco1 | 9.8
O=C(CSc1nnnn1-c1ccccc1F)Nc1ccc2c(c1)OCO2 | -2.6

Structure (SMILES) | displacement [%]
O=C(CSc1nnc2c(n1)[nH]c1ccccc12)Nc1ccccc1 | 19.4
CCCOc1cccc(NC(=O)c2cc(C)oc2C)c1 | 8.3
COCCCNC(=O)/C(=C\C=C\c1ccccc1)NC(=O)c1ccccc1 | 14.1
Cc1cc(NS(=O)(=O)c2ccc(Nc3nc(-c4ccc(Cl)cc4)cs3)cc2)no1 | -7.7
C(=NN1CCN(c2ccccn2)CC1)c1cccc(OCc2ccccc2)c1 | -6.7
CC(=O)N1c2ccc3ccccc3c2C2C=CCC2C1c1ccc(F)cc1 (stereo not drawn) | 13.5
O=C(Nc1cc(C(F)(F)F)cc(C(F)(F)F)c1)c1ccc([N+](=O)[O-])o1 | -0.8
Cc1ccc2[nH]c(=O)c(C(=O)/C=C\c3ccccc3)c(-c3ccccc3)c2c1 | -9.8
Clc1ccc(/C=N/Nc2nc(N3CCOCC3)nc(N3CCOCC3)n2)cc1 | 23.2
COC(=O)C1=C(C)N=C2SCCC(=O)N2C1c1ccc(C(C)(C)C)cc1 (stereo not drawn) | 12.2
COc1ccc(/C(C)=N/N=C2/NC(=O)C(CC(=O)Nc3cccc([N+](=O)[O-])c3)S2)cc1 (stereo not drawn) | 12.5
Cc1cc(-c2ccccc2)c2ccc(O)cc2n1 | 12
O=C(c1ccc([N+](=O)[O-])cc1)N1CCN(Cc2cccc(Cl)c2)CC1 | -21.7
COc1ccc2c(c1OC)C(=O)N(c1nc(-c3ccccc3)cs1)C2=O | -14.2
COC(=O)c1ccc(COc2ccc3c(C)cc(=O)oc3c2)cc1 | 7.9
COc1ccccc1OCC(=O)Nc1ccc2c(c1)OCCO2 | 2.2
O=C(Nc1cccc2ccccc12)N1CCCCCC1 | 1.9
CCCNC(=O)C1CC(=O)N(c2ccc(Br)cc2)C1 (stereo not drawn) | 13.5
CCOc1ccc(N(CC(=O)NCCSc2ccc(Cl)cc2)S(C)(=O)=O)cc1 | -12.1
Cc1cc(Cl)ccc1OCC(=O)Nc1ccccc1O | 25.3
